From the supplement of paper PMC3334620
Over roughly 33,000 sequences, “E-score (-0.5 to 0.5)” has its median near -0.032; the highest 2% begin near 0.36. This is one part of the list.

Molecular target: T1, Sko1 (UniProt Q02100)
T1 sequence: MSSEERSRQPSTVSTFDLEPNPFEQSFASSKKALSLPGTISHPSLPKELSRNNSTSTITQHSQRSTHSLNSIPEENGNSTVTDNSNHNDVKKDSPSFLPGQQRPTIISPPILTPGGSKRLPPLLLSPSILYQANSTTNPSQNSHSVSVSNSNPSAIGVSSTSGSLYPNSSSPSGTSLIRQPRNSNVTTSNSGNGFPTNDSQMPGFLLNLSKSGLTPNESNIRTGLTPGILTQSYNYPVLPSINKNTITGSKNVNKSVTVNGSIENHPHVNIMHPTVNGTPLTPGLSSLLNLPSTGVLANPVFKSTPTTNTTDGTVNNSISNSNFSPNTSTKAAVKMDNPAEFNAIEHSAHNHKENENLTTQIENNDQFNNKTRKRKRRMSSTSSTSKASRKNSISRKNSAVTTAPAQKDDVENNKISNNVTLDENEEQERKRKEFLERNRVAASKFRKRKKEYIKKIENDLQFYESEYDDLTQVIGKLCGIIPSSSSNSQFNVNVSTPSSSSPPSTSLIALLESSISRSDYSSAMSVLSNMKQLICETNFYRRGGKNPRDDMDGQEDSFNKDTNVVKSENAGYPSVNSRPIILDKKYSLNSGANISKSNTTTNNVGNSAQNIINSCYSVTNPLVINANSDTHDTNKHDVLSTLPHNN
Assay: PBM E-score (8-mer binding enrichment) (E-score (-0.5 to 0.5)); higher = stronger / more preferred TF binding; most listed sequences are background and not binding sites
Conditions: protein concentration: 200 nM; construct: GST-full length
Summary of the method: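 The E-score, a modified Wilcoxon-Mann-Whitney statistic, was computed by the Universal PBM Analysis Suite for every ungapped eight-base word pooled with its reverse complement. Scans behind it were normalised with masliner after bound GST-tagged yeast transcription factors were detected with fluorescent anti-GST. The proteins, at about 100-200 nM, had been applied to universal all-10-mer Agilent arrays made double-stranded by primer extension.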

Row | Sequence | PBM E-score
1 | CTCTGCAG | -0.183
2 | CAACTATG | 0.0593
3 | CGATTTCA | -0.0131
4 | CAGGACTA | -0.147
5 | CCCTTGAC | -0.237
6 | CGTTTCCA | 0.172
7 | CTCGTTTA | 0.0316
8 | CTAGGGCC | -0.18
9 | CCGATCAC | -0.0145
10 | TAAACCGA | -0.162
11 | CGTGGGGA | 0.0768
12 | AGGGCCAT | -0.112
13 | GTTCGTCA | 0.367
14 | AGCCCTGC | -0.198
15 | AACGGCTT | -0.317
16 | GCAGGTGA | 0.0519
17 | CTCATGTC | 0.00709
18 | AGCCATGG | -0.169
19 | ATCGGTTC | -0.196
20 | AGCCTTCC | -0.17
21 | TACGGCTA | -0.0295
22 | CAGATGAG | -0.0677
23 | GGGGCCAA | -0.158
24 | AGAGCTGG | -0.228
25 | GGAGCCCA | -0.272

Row | Sequence | PBM E-score
26 | GACTGTAA | 0.0192
27 | GCCTTTGA | -0.141
28 | ACTTAGGA | -0.00398
29 | GTAGTTAA | 0.196
30 | AGCTCCGA | -0.0948
31 | CGGGCCCG | 0.0314
32 | CCGCTAAG | -0.182
33 | AGTAGATG | 0.109
34 | CAGGCCAC | -0.133
35 | CAGACGCG | 0.0181
36 | GGGAGTAA | -0.0522
37 | GTGACACA | 0.145
38 | CTATTCAA | 0.0384
39 | AGGGGTAC | -0.106
40 | ACCGGGAA | -0.0534
41 | AGCACGCG | 0.204
42 | AGCTTGGC | -0.24
43 | ACTCATTG | 0.0239
44 | GTAGCCCA | -0.0393
45 | GCAGGGGA | -0.299
46 | AGCCTGGC | -0.277
47 | CGGAACGC | -0.171
48 | CGGACCTC | -0.237
49 | GCTATAGA | -0.0939
50 | CCGGAGTC | -0.114

Row | Sequence | PBM E-score
51 | CGAGACTA | 0.179
52 | CGCTTGGC | -0.0644
53 | AGTTTAAC | 0.0741
54 | GATGCGGC | -0.214
55 | AGTAGACC | -0.183
56 | CTGCCTGC | -0.262
57 | CACCCCTA | -0.0226
58 | CACCGCCG | -0.307
59 | CAATATGA | 0.299
60 | ATACCCTA | 0.0013
61 | AATCTCTA | 0.0999
62 | CGTTGCAA | 0.137
63 | GCTAAGAC | 0.107
64 | CTGTATCC | -0.166
65 | CAAGCTCG | -0.0275
66 | ATAAACGC | 0.181
67 | CCGTTGGC | -0.191
68 | CCTCCGGA | -0.336
69 | GTGTTTTA | 0.211
70 | AACGAGGT | -0.0133
71 | CCGAGCAG | -0.118
72 | AACACCAG | -0.0665
73 | ATTAACCA | -0.0697
74 | AACTGGTA | -0.217
75 | TTTCAAAA | 0.253

Row | Sequence | PBM E-score
76 | TAGGGGGA | -0.251
77 | AGTACACT | 0.02
78 | GTTCCGAA | 0.0442
79 | TCAGCAGA | -0.157
80 | CTATATTC | 0.11
81 | CTAATGGA | -0.158
82 | ACGAGGCT | 0.0826
83 | CCCCGATC | -0.386
84 | GGGCATGA | -0.29
85 | GTCCCTCA | -0.256
86 | CGGTCTCA | -0.236
87 | GTCAAGCA | -0.0917
88 | AGTTAAAT | 0.077
89 | ATTCAACC | -0.122
90 | TAAGTGGA | 0.0718
91 | AGTCGCTG | -0.202
92 | ATCTCCAA | -0.102
93 | CCGGAAGC | -0.193
94 | ACAGTAAG | 0.118
95 | CTACAATA | 0.0315
96 | TAACTGCA | 0.0898
97 | CGCTCGTA | 0.0208
98 | AAGTGAGA | -0.122
99 | TAGCGGGA | -0.23
100 | GCTACAAC | -0.226

Row | Sequence | PBM E-score
101 | ATTCTCTC | 0.0175
102 | ATCATCAA | 0.149
103 | TCGATGAA | 0.017
104 | GAGACGAA | -0.0289
105 | CGTGTTCC | 0.0601
106 | CGAGACCC | -0.17
107 | CTTCGTTC | -0.123
108 | GCGTCTCC | -0.116
109 | ATAATGAT | 0.278
110 | GAAAAAAC | 0.201
111 | CTTTCTCA | 0.168
112 | AGGTGCCA | -0.0356
113 | AGATGGAG | -0.163
114 | CTTGATGC | -0.116
115 | GAGTAGGC | -0.259
116 | CACCTGGC | -0.0659
117 | ATACGGTA | 0.255
118 | ATACCACA | 0.056
119 | GCGGTAGC | -0.198
120 | ACCCAACC | -0.119
121 | TCGGCAGA | -0.18
122 | AAGAACTT | 0.0882
123 | CCAATCTC | -0.09
124 | ACCTAACC | 0.201
125 | CCAAATAA | 0.209

Row | Sequence | PBM E-score
126 | GTATCTTA | 0.21
127 | ATGGTATG | -0.135
128 | ACATGACA | 0.217
129 | AAATCAAG | 0.122
130 | ACCGCTTC | -0.221
131 | CCAGGTGA | -0.0328
132 | AGGGGGAC | -0.287
133 | AGAGTGTG | -0.0999
134 | ACAGTTAG | -0.2
135 | GACTCGTA | 0.0636
136 | ACACATAG | 0.0102
137 | CACTATGG | -0.129
138 | CTTTACGC | 0.35
139 | CAATCCAG | -0.158
140 | CAAAGCGG | -0.189
141 | AGCGTCAT | 0.445
142 | TCTGACAA | 0.0457
143 | CCGTTCCA | -0.184
144 | CGCAACTA | 0.146
145 | AGCTATTA | 0.145
146 | ATAATTCA | 0.22
147 | GAAGGCGC | -0.204
148 | GAGCCTAA | -0.116
149 | CGTTAACG | 0.137
150 | CAAGAACC | 0.2

Row | Sequence | PBM E-score
151 | TGCCGTAA | 0.159
152 | AAAGACCG | -0.106
153 | CCGACCTA | 0.0614
154 | GAAACTGA | -0.0418
155 | GCACTCCC | -0.143
156 | ATCGAGAT | -0.05
157 | CGTCGCTA | 0.133
158 | TCGGTCAA | -0.0674
159 | CGCCTTGA | -0.11
160 | CTCCCCGA | -0.299
161 | GATTAAGC | -0.0337
162 | ACATAAGT | 0.207
163 | AAACTTCA | 0.181
164 | CAAATCTG | 0.121
165 | AATTTAGC | 0.187
166 | AAAGTTCT | -0.051
167 | ACGGCGAT | -0.113
168 | ACGCGACG | 0.23
169 | CACTACAA | 0.266
170 | CGACCTAA | 0.136
171 | CGAGTCTC | -0.407
172 | GTTTATAA | 0.19
173 | ACCCGTGC | 0.0134
174 | CAAGATTG | 0.0271
175 | CCTGCAGG | -0.237

Row | Sequence | PBM E-score
176 | CATAGTCA | 0.00982
177 | CACCCCTC | -0.188
178 | AGAAGAGG | -0.0413
179 | ATAACTAC | 0.264
180 | GCCACCGC | -0.181
181 | ATCGGTTA | 0.0159
182 | GAAGAAAA | 0.0331
183 | CTTTATTC | -0.0121
184 | CCCTGGCC | -0.265
185 | CATAGGAC | -0.0867
186 | CAGAACGA | 0.0394
187 | AGATCGCC | -0.0903
188 | GGGGAAAA | -0.0662
189 | AGAAACCA | -0.026
190 | ATCCTAGC | -0.0411
191 | CGGCTGCA | -0.265
192 | GTTCTACA | -0.0101
193 | ACCTAAAC | 0.0414
194 | CCCATACA | 0.00693
195 | ATGCCTGG | -0.197
196 | ACTTGCAT | 0.0511
197 | GCTACGTA | 0.456
198 | ATTGCAGC | -0.00414
199 | ACAGCGGG | -0.109
200 | ATCTTAAG | -0.0288

Row | Sequence | PBM E-score
201 | CTTAACTA | 0.189
202 | CTAGTGAG | 0.0303
203 | CGTCTGAC | 0.128
204 | CAGGTGGA | -0.286
205 | TGTAACAA | 0.0605
206 | ATTCTCAG | -0.0855
207 | ATCAGAAA | 0.0216
208 | AACGCCCC | -0.21
209 | ACTTTCAT | 0.0326
210 | AATAGGGC | -0.218
211 | AGCTGAGC | -0.2
212 | CTGCGATC | -0.212
213 | AAAGGCAT | -0.0528
214 | AATCCTTG | -0.054
215 | GGAGGCGA | -0.151
216 | TCGCCAAA | -0.114
217 | ATTTGCTG | 0.0414
218 | CCTCATTA | 0.131
219 | CAGCGACC | -0.145
